± gives the standard error. Variants at the background level are over-represented here.
B1: glmS ribozyme (parent)
chain: AUAAAAGCGCCAGAACUACAGAAAUGUAGUUGACGAGGAGGAGGUUUAUCGAAUUUUCGGCGGAUGCCUCCAAA

How the values were obtained:
Conditions in all cases: with glucosamine-6-phosphate
glucosamine-6-phosphate [1] = variants of: B1; assay: self-cleavage kobs at 40 uM GlcN6P; higher = faster cleavage; RNA array
In short: (§1)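 kobs was derived by fitting per-tile medians to one- or two-exponential decays after normalising signals to baseline and to non-cleaving reference variants. Those signals came from barcoded ribozyme variants transcribed in situ by E. coli RNA polymerase on sequenced MiSeq chips, followed through a hybridised Cy3 probe at 37 °C and imaged over ~14 h. Glucosamine-6-phosphate (40 μM to 10 mM) in HEPES/KCl/Mg(OAc)2 buffer was flowed in. Weighted Michaelis–Menten fits across concentrations then gave kcat and KM.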

glucosamine-6-phosphate [2] = variants of: B1; assay: self-cleavage kobs at 2500 uM GlcN6P; higher = faster cleavage; RNA array
In short: as §1

glucosamine-6-phosphate [3] = variants of: B1; assay: self-cleavage kobs at 10000 uM GlcN6P; higher = faster cleavage; RNA array
In short: as §1

glucosamine-6-phosphate [4] = variants of: B1; assay: self-cleavage kobs at 640 uM GlcN6P; higher = faster cleavage; RNA array
In short: as §1

glucosamine-6-phosphate [5] = variants of: B1; assay: self-cleavage kobs at 160 uM GlcN6P; higher = faster cleavage; RNA array
In short: as §1

Variant | self-cleavage kobs at 40 uM GlcN6P (glucosamine-6-phosphate [1]) | self-cleavage kobs at 2500 uM GlcN6P (glucosamine-6-phosphate [2]) | self-cleavage kobs at 10000 uM GlcN6P (glucosamine-6-phosphate [3]) | self-cleavage kobs at 640 uM GlcN6P (glucosamine-6-phosphate [4]) | self-cleavage kobs at 160 uM GlcN6P (glucosamine-6-phosphate [5])
A14G G63A | < 1e-05 s⁻¹ | < 1e-05 s⁻¹ | – | – | –
A14G U31C G41C G63A | < 1e-05 s⁻¹ | – | < 1e-05 s⁻¹ | – | –
A14G U45G | 0.000286 ± 0.0001 s⁻¹ | 0.00864 ± 0.003 s⁻¹ | 0.0175 ± 0.0071 s⁻¹ | 0.00617 ± 0.0025 s⁻¹ | 0.000908 ± 0.00024 s⁻¹
A14G U49G | 7.8e-05 ± 1.6e-05 s⁻¹ | 0.00109 ± 0.0003 s⁻¹ | 0.00302 ± 0.00044 s⁻¹ | 0.000937 ± 0.00022 s⁻¹ | –
A14U A15C | < 1e-05 s⁻¹ | – | – | – | –
A14U A36C G38C G51U U54G C71U | < 1e-05 s⁻¹ | – | – | – | –
A14U A39C | 2.83e-05 ± 7.2e-06 s⁻¹ | – | – | – | –
A14U A53C | 3.59e-05 ± 9.1e-06 s⁻¹ | 0.000834 ± 7.7e-05 s⁻¹ | 0.00105 ± 0.00014 s⁻¹ | 0.000309 ± 3.9e-05 s⁻¹ | 9.57e-05 ± 1.5e-05 s⁻¹
A14U C16A C50A A64U | < 1e-05 s⁻¹ | – | < 1e-05 s⁻¹ | – | –
A14U C50U | < 1e-05 s⁻¹ | – | – | – | –
A14U G29U A36G G40A U46G | < 1e-05 s⁻¹ | – | – | – | –
A14U G37C A52U | < 1e-05 s⁻¹ | – | – | – | –
A14U G37U | < 1e-05 s⁻¹ | – | < 1e-05 s⁻¹ | < 1e-05 s⁻¹ | –
A14U G37U U45C | < 1e-05 s⁻¹ | < 1e-05 s⁻¹ | < 1e-05 s⁻¹ | – | < 1e-05 s⁻¹
A14U G37U U57A G60U | < 1e-05 s⁻¹ | < 1e-05 s⁻¹ | < 1e-05 s⁻¹ | < 1e-05 s⁻¹ | –
A14U G40A G51U | < 1e-05 s⁻¹ | – | – | – | –
A15C A36G | < 1e-05 s⁻¹ | < 1e-05 s⁻¹ | < 1e-05 s⁻¹ | < 1e-05 s⁻¹ | < 1e-05 s⁻¹
A15C A48G G59U A64C | < 1e-05 s⁻¹ | – | – | – | –
A15C C50G G62U | 4.56e-05 ± 2.2e-05 s⁻¹ | 0.000111 ± 3.3e-05 s⁻¹ | – | 6.39e-05 ± 2.8e-05 s⁻¹ | –
A15C G32U G60U | < 1e-05 s⁻¹ | – | – | – | –
A15C G35U C50U | < 1e-05 s⁻¹ | < 1e-05 s⁻¹ | < 1e-05 s⁻¹ | – | –
A15C G35U G63C | < 1e-05 s⁻¹ | – | – | – | –
A15C G38A | < 1e-05 s⁻¹ | < 1e-05 s⁻¹ | – | < 1e-05 s⁻¹ | –
A15C G43U | < 1e-05 s⁻¹ | – | – | < 1e-05 s⁻¹ | < 1e-05 s⁻¹
A15C G59A C71A | < 1e-05 s⁻¹ | – | < 1e-05 s⁻¹ | – | –

Variant | self-cleavage kobs at 40 uM GlcN6P (glucosamine-6-phosphate [1]) | self-cleavage kobs at 2500 uM GlcN6P (glucosamine-6-phosphate [2]) | self-cleavage kobs at 10000 uM GlcN6P (glucosamine-6-phosphate [3]) | self-cleavage kobs at 640 uM GlcN6P (glucosamine-6-phosphate [4]) | self-cleavage kobs at 160 uM GlcN6P (glucosamine-6-phosphate [5])
A15C U57G | < 1e-05 s⁻¹ | – | – | – | < 1e-05 s⁻¹
A15G C16U A52U U57A G59U | < 1e-05 s⁻¹ | – | < 1e-05 s⁻¹ | – | < 1e-05 s⁻¹
A15G C34A U54A C71U | < 1e-05 s⁻¹ | – | – | < 1e-05 s⁻¹ | –
A15G G35C | < 1e-05 s⁻¹ | < 1e-05 s⁻¹ | – | < 1e-05 s⁻¹ | –
A15G G37U G41C U56G | < 1e-05 s⁻¹ | < 1e-05 s⁻¹ | < 1e-05 s⁻¹ | – | –
A15G U30G G44U | < 1e-05 s⁻¹ | – | – | – | –
A15G U31G A39U | 3.3e-05 ± 1.1e-05 s⁻¹ | 0.000869 ± 0.00014 s⁻¹ | 0.00265 ± 0.00042 s⁻¹ | 0.000575 ± 0.00013 s⁻¹ | 0.000104 ± 1.8e-05 s⁻¹
A15G U45A | 0.00128 ± 0.00026 s⁻¹ | – | – | – | –
A15G U46G | 0.000184 ± 2e-05 s⁻¹ | – | – | 0.00198 ± 0.00026 s⁻¹ | 0.000667 ± 0.0001 s⁻¹
A15G U46G A48U G59A | < 1e-05 s⁻¹ | < 1e-05 s⁻¹ | < 1e-05 s⁻¹ | – | < 1e-05 s⁻¹
A15G U56C C67G | < 1e-05 s⁻¹ | – | – | – | –
A15U | 0.000227 ± 4e-06 s⁻¹ | 0.00682 ± 0.00026 s⁻¹ | 0.00847 ± 0.00024 s⁻¹ | 0.00245 ± 8.9e-05 s⁻¹ | 0.00061 ± 2.2e-05 s⁻¹
A15U A33C U69G | < 1e-05 s⁻¹ | – | < 1e-05 s⁻¹ | < 1e-05 s⁻¹ | –
A15U A36C U46G | < 1e-05 s⁻¹ | – | < 1e-05 s⁻¹ | – | –
A15U A48U G59C | < 1e-05 s⁻¹ | – | – | < 1e-05 s⁻¹ | –
A15U A53G | 0.00019 ± 1.8e-05 s⁻¹ | 0.00373 ± 0.00055 s⁻¹ | 0.00681 ± 0.00053 s⁻¹ | 0.0015 ± 0.0002 s⁻¹ | 0.000531 ± 6.8e-05 s⁻¹
A15U C16G G32C | < 1e-05 s⁻¹ | – | – | – | –
A15U C68A | < 1e-05 s⁻¹ | – | – | – | –
A15U G29A G43A | < 1e-05 s⁻¹ | – | < 1e-05 s⁻¹ | – | –
A15U G32C C34A | < 1e-05 s⁻¹ | – | – | – | –
A15U G35A C61A | < 1e-05 s⁻¹ | – | – | < 1e-05 s⁻¹ | –
A15U G40C U47C C70G | < 1e-05 s⁻¹ | – | – | – | –
A15U G41U A42G U57C C70A | < 1e-05 s⁻¹ | – | – | – | –
A15U G44A | < 1e-05 s⁻¹ | – | 2.88e-05 ± 1.1e-05 s⁻¹ | < 1e-05 s⁻¹ | < 1e-05 s⁻¹
A15U G62A | < 1e-05 s⁻¹ | < 1e-05 s⁻¹ | < 1e-05 s⁻¹ | – | < 1e-05 s⁻¹

Reference: the supplement of paper PMC7125110
